# This is one part of the list.
# Assays:
# HSkMC = human skeletal muscle cells; test: cytotoxicity call (relative viability < 0.9); conditions: 10 µM
# HepG2 = test: cytotoxicity call (relative viability < 0.9); conditions: 10 µM
# S. aureus RN4220 = test: growth inhibition call (relative growth <= 0.2); conditions: 50 µM
SMILES,cytotoxicity call (HSkMC),cytotoxicity call (HepG2),growth inhibition call (S. aureus RN4220)
C[C@@H]1CN([C@H](C)CO)C(=O)c2cc(NC(=O)CCC(F)(F)F)ccc2O[C@@H](C)CCCCO[C@H]1CN(C)C(=O)NC1CCCCC1,inactive,inactive,inactive
O=C(C[C@@H]1CC[C@@H](NC(=O)CN2CCOCC2)[C@H](CO)O1)NC1CCC1,inactive,inactive,inactive
C=C1SC(Nc2c(C)cccc2C)=NC12CCCCC2,inactive,active,inactive
C[C@@H]1CN([C@H](C)CO)C(=O)Cc2cc(NS(=O)(=O)c3ccc(F)cc3)ccc2O[C@@H]1CN(C)CC1CC1,inactive,inactive,inactive
O=C(CN1CCOCC1)N[C@H]1CC[C@@H](CCn2cc(C3CCCC3)nn2)O[C@@H]1CO,inactive,inactive,inactive
CC(C)NC(=O)Nc1ccc2c(c1)CC(=O)N([C@@H](C)CO)C[C@@H](C)[C@@H](CN(C)S(=O)(=O)c1cccs1)O2,inactive,active,inactive
CN1C(=O)c2cc(NC(=O)C3CCOCC3)ccc2OC[C@@H]2O[C@H](CC(=O)NCc3ccccc3F)CC[C@H]21,inactive,inactive,inactive
CO[C@H]1CN(C)C(=O)c2cc(NS(C)(=O)=O)ccc2OC[C@H](C)N(C(=O)C2CCOCC2)C[C@H]1C,inactive,inactive,inactive
C[C@@H]1CN([C@H](C)CO)C(=O)c2c(c3ccccc3n2C)-c2ccccc2CO[C@H]1CN(C)S(=O)(=O)c1ccc(Cl)cc1,inactive,inactive,inactive
COc1cccc(S(=O)(=O)N2C[C@H](O)COC[C@H]3O[C@H](CC(=O)N4CCOCC4)CC[C@@H]32)c1,inactive,inactive,inactive
CNC(=O)Cc1cnc(N)s1,inactive,inactive,inactive
Cc1noc(C)c1NC(=O)N(C)C[C@H]1Oc2ccc(NC(=O)CCN3CCOCC3)cc2C(=O)N([C@H](C)CO)C[C@@H]1C,inactive,inactive,inactive
O=C(Cc1ccncc1)NCC[C@H]1CC[C@@H](NC(=O)C2CCOCC2)[C@H](CO)O1,inactive,inactive,inactive
O=C(Nc1ccc(-c2ccccc2)cc1)[C@H]1C[C@@H]1c1ccccc1,inactive,inactive,inactive
Cc1noc(C)c1S(=O)(=O)Nc1ccc2c(c1)C(=O)N([C@H](C)CO)C[C@H](C)[C@@H](CN(C)C)OCCCC[C@@H](C)O2,inactive,inactive,inactive
C[C@H](CO)N1C[C@H](C)[C@H](CN(C)C(=O)Nc2ccccc2)Oc2c(NC(=O)c3cnccn3)cccc2C1=O,inactive,inactive,inactive
O=C(O)CN1C(=O)c2cccc3cccc(c23)C1=O,inactive,inactive,inactive
C[C@H](CO)N1C[C@H](C)[C@H](CN(C)S(C)(=O)=O)Oc2cc(C#Cc3ccc(F)cc3)ccc2S1(=O)=O,inactive,active,inactive
C[C@H](CO)N1C[C@H](C)[C@@H](CN(C)C(=O)Nc2ccc(F)cc2)Oc2ccc(NS(=O)(=O)c3cn(C)cn3)cc2C1=O,inactive,inactive,inactive
COc1ccc(S(=O)(=O)N(C)C[C@@H]2OCCCC[C@H](C)Oc3ccc(NC(=O)Nc4ccccc4)cc3C(=O)N([C@@H](C)CO)C[C@H]2C)cc1,inactive,inactive,inactive
C[C@H]1CN([C@@H](C)CO)C(=O)Cc2cc(NC(=O)Nc3cccc(C(F)(F)F)c3)ccc2O[C@H]1CN(C)S(=O)(=O)c1ccc(Cl)cc1,active,active,inactive
O=C(C[C@H]1CC[C@H]2[C@@H](COC[C@@H](O)CN2S(=O)(=O)c2ccccc2Cl)O1)NCCc1ccncc1,inactive,inactive,inactive
CCOC(=O)CCCCCC(=O)Nc1ccc2c(c1)C(=O)N([C@@H](C)CO)C[C@@H](C)[C@H](CN(C)S(=O)(=O)c1cccs1)OCCCC[C@H](C)O2,inactive,inactive,inactive
COCC#Cc1ccc2c(c1)O[C@@H](CN(C)Cc1ccc(F)cc1)[C@H](C)CN([C@@H](C)CO)S2(=O)=O,inactive,inactive,inactive
C[C@@H]1CCCCO[C@H](CN(C)S(=O)(=O)c2ccccc2)[C@H](C)CN([C@H](C)CO)C(=O)c2cc(NC(=O)Nc3cccc4ccccc34)ccc2O1,inactive,inactive,inactive
C[N+](C)(C)CCO,inactive,inactive,inactive
CCC(=O)N1C[C@]2(C1)CN([C@@H](CO)c1c2c2ccc(cc2n1C)OC)C(=O)CN1CCOCC1,inactive,inactive,inactive
